# Experimental data as given in PubChem BioAssay AID624296 (National Center for Advancing Translational Sciences (NCATS), 2012).
# The whole screen tested about 350,000 compounds, of which about 9,900 (2.8%) were called active. Inconclusive results, whose numbers are uncertain, are shown with a selection of clear calls. The call rests on the fitted dose curve; in most records, active means well fitted activation curve with a large enough effect; inconclusive means small, poorly fitted or top-dose-only effect; inactive means no such curve, though single readings can be large or run the other way. No potency is given beside an inconclusive call; the fits are too rough.
# Test: A quantitative high throughput screen for small molecules that induce DNA re-replication in MCF 10a normal breast cells. Further: nearly all actives have a fitted effect of over 50% in size.
# Conditions: MCF 10A DNA re-replication, Hoechst nuclear intensity, 48 h; series mostly up to 46.1 µM
# Potency means the concentration at half of the fitted maximal effect; tags describe the fitted curve by direction and shape.
row,Structure (SMILES),Potency
1,COCCNc1ncnc2c1cnn2Cc1ccc(Cl)cc1,"inconclusive [activator, partial curve, poor fit]"
2,CCOC(=O)c1c(O)cc(C)cc1Nc1ccccc1,"inconclusive [activator, single point]"
3,Cc1nnc(-c2cccc(Br)c2)c2cn(-c3cccc(Br)c3)nc12,"inconclusive [activator, partial curve]"
4,Cc1cccn2c(=O)c3cc(C(=O)NC4CCCC4)c(=N)n(C4CCCC4)c3nc12,active: 3.55 µM
5,Cc1ccc2nc(NC(=S)NC(=O)c3ccco3)sc2c1,"inconclusive [activator, single point]"
6,O=C(NCCC1CCCCN1S(=O)(=O)c1ccc(Cl)cc1)C(=O)NCc1ccco1 (centres undefined),"inconclusive [activator, single point]"
7,CC(C)c1ccc(CNNC(=O)c2ccccc2)cc1,"inconclusive [activator, single point]"
8,CC(C)(C)c1ccccc1NC(=O)CN1C(=O)NC(Cc2ccccc2)C1=O (centres undefined),inactive
9,COc1ccc(-n2c(O)c(C=Nc3ccccc3)c3ccccc3c2=O)cc1OC,"inconclusive [activator, partial curve, poor fit]"
10,C=CCn1c(-c2sc3nc(C)cc(C)c3c2N)n[nH]c1=S,active: 9.2 µM
11,CCOc1ccc(-c2n[nH]c(C)c2-c2ccccc2OC)c(O)c1,active: 12.6 µM
12,CCOC(=O)C(NC(=O)Nc1ccc(O)cc1)(c1ccccc1)C(F)(F)F (centres undefined),"inconclusive [activator, single point]"
13,COc1ccc(S(=O)(=O)NC2CC2)cc1C(=O)N1CCOCC1,"inconclusive [activator, single point]"
14,Clc1ccc(N=c2ssnc2Cl)cc1,"inconclusive [activator, single point]"
15,CCCc1cc(=O)[nH]c(SCC(=O)N2N=C(c3ccc(Cl)cc3)CC2c2ccco2)n1 (centres undefined),"inconclusive [activator, single point]"
16,CCc1nc(SCC(=O)Nc2ccc3c(c2)OCCO3)c2oc3ccccc3c2n1,active: 23.1 µM
17,O=C(Nc1ncccn1)c1cc(-c2ccc(F)cc2)nc2ccccc12,inactive
18,OC[C@@H]1[C@@H](c2ccc(F)cc2)C(c2ccccc2)=NN1c1ccccc1,"inconclusive [activator, partial curve, poor fit]"
19,Cc1ccccc1/C=N/n1c(-c2cc(-c3ccccc3)n[nH]2)n[nH]c1=S,"inconclusive [activator, single point]"
20,COc1ccc(-c2nnc(NC(=O)c3ccc4c(c3)OCCO4)o2)cc1,inactive
21,O=C(/C=C/c1cn(-c2ccccc2)nc1-c1ccccc1)Nc1ccc(C(=O)O)cc1,"inconclusive [activator, single point]"
22,CCC(CC)NCc1ccc2c(c1)c1ccccc1n2CC,active: 20.6 µM
23,COc1ccc(-n2c(C)c(C)c3c(NCCN(C)C)ncnc32)cc1,inactive

row,Structure (SMILES),Potency
1,O=C(CNC(=S)N(CCCN1CCOCC1)Cc1cccs1)NCc1ccccc1,inactive
2,Cc1occc1C(=O)NC1CCCN(Cc2ccc(CC(C)C)cc2)C1 (centres undefined),"inconclusive [activator, single point]"
3,CC(Oc1ccc(F)cc1)C(=O)N(CCC1=CCCCC1)c1c(N)n(Cc2ccccc2)c(=O)[nH]c1=O (centres undefined),"inconclusive [activator, single point]"
4,CC(C)=NNc1nc2c(c(=O)[nH]c(=O)n2C)n1CCc1ccccc1,"inconclusive [activator, single point]"
5,COc1ccc(OC)c(S(=O)(=O)N2CCC(C(=O)N3CCN(Cc4ccccc4)CC3)CC2)c1,inactive
6,CC(=NNC(=S)Nc1cccc(C)c1)c1ccccn1,"inconclusive [activator, full curve, poor fit]"
7,Cc1cccc(OCC(=O)NCC(=O)N/N=C/c2c(C)[nH]c3ccccc23)c1,"inconclusive [activator, single point]"
8,C/C(=N/Nc1cc(-c2ccccc2)nc(-c2ccccc2)n1)c1ccc(O)cc1,active: 18.4 µM
9,O=C(Nc1cccnc1Cl)c1cccs1,inactive
10,CN(C)CCSc1nnc(-c2ccccc2)o1,"inconclusive [activator, single point]"
11,Fc1ccc(-c2csc3ncnc(N4CCc5ccccc5C4)c23)cc1,active: 10.3 µM
12,COc1cccc(C2=NN(C(=O)c3ccccc3)C(O)(C(F)(F)F)C2)c1 (centres undefined),"inconclusive [activator, single point]"
13,O=C(CSCc1c(Cl)cccc1Cl)NCC1CCCO1 (centres undefined),"inconclusive [activator, partial curve, poor fit]"
14,Cc1cc(C(=O)c2ccccc2)c(NC(=O)CCl)s1,"inconclusive [activator, single point]"
15,COc1ccccc1N1CCN(S(=O)(=O)c2ccc(-n3cnnn3)cc2)CC1,inactive
16,CC(=O)Nc1ccc(Nc2nc(-c3cc4ccccc4oc3=O)cs2)cc1,"inconclusive [activator, single point]"
17,S=c1[nH]c(-c2ccccc2)cs1,inactive
18,CCc1ccc(C2NC(=S)NC3=C2C(=O)N(c2ccccc2OC)C(c2ccc(CC)cc2)N3)cc1 (centres undefined),"inconclusive [activator, single point]"
19,COC(=O)c1cccc(Nc2nc3ccccc3nc2C)c1,"inconclusive [activator, single point]"
20,CCN(CC)CCNC(=O)/C(=C\c1cccn1C)NC(=O)c1cccs1,"inconclusive [activator, single point]"
21,Cc1cc(C(C)(C)C)ccc1OCCn1ccnc1,"inconclusive [activator, single point]"
22,CCOC(=O)N1CCC(NC(=O)c2cc(-c3ccc(OC)cc3)nc3ccccc23)CC1,"inconclusive [activator, single point]"
23,O=C(Nc1ccccc1N(C(=O)c1ccco1)S(=O)(=O)c1cccs1)c1ccco1,"inconclusive [activator, single point]"

row,Structure (SMILES),Potency
1,COc1cccc(NC(=O)CN(C)CC(=O)Nc2ccc3c(c2)CCC3)c1,active: 0.651 µM
2,O=C(NCc1ccc2c(c1)OCO2)c1ccc(NS(=O)(=O)c2ccc3c(c2)OCCO3)cc1,"inconclusive [activator, single point]"
3,COc1ccc(NC(=O)CCNC(=O)Cn2cnc3sc4c(c3c2=O)CCCC4)c(OC)c1,inactive
4,O=C1C2CC=CCC2C(=O)N1c1n[nH]c(Cc2ccccc2)n1 (centres undefined),active: 7.31 µM
5,C=CCn1c(Cc2cccs2)nnc1SCC(=O)c1ccc(F)cc1,"inconclusive [activator, partial curve, poor fit]"
6,Cn1cnnc1Sc1nc2ccccc2nc1NS(=O)(=O)c1ccccc1,"inconclusive [activator, single point]"
7,COc1ccccc1-c1nc(-c2ccccc2)nc(N2CCN(C)CC2)c1C#N,"inconclusive [activator, single point]"
8,COc1ccc(OC)c(S(=O)(=O)Nc2ccc(C(N)=O)cc2)c1,"inconclusive [activator, full curve, poor fit]"
9,Cc1ccccc1NC(=O)c1ccccc1NC(=O)Cc1cccc2ccccc12,"inconclusive [activator, partial curve, poor fit]"
10,O=C(Cn1cc(COc2cccc([N+](=O)[O-])c2)nn1)c1ccc(O)cc1,inactive
11,CN1CCN(C(=O)c2cnn3c2NC(c2ccccc2)CC3C(F)(F)F)CC1 (centres undefined),"inconclusive [activator, single point]"
12,Cc1csc(CNc2ncnc3ccc(-c4ccc5c(c4)OCCO5)cc23)c1,"inconclusive [activator, full curve, poor fit]"
13,CCc1cccc(CC)c1C(O)c1cccnc1 (centres undefined),inactive
14,CN1CCN(c2ccc(-c3ccc4ccccc4n3)cc2)CC1,active: 13 µM
15,Cc1nn(CC(=O)N(CC(C)C)C2CCS(=O)(=O)C2)c(C)c1[N+](=O)[O-] (centres undefined),inactive
16,O=C(Nc1ccncc1)C1CCN(S(=O)(=O)c2cccc(C(F)(F)F)c2)CC1,"inconclusive [activator, single point]"
17,COc1ccc(Cl)cc1NC(=O)Cn1nnc(C(=O)NCc2ccc3c(c2)OCO3)c1N,"inconclusive [activator, full curve, poor fit]"
18,CCCc1c(C(=O)N/N=C/C(C)=C/c2ccco2)nnn1-c1nonc1N,"inconclusive [activator, single point]"
19,Cc1noc(C)c1S(=O)(=O)N(CC(=O)Nc1ccc2c(c1)OCCO2)c1ccc(C(C)C)cc1,"inconclusive [activator, single point]"
20,CN1CCN(c2ncnc3sc(-c4ccccc4)cc23)CC1,"inconclusive [activator, partial curve, poor fit]"
21,CCc1ccc(O)c(N=Cc2cccc(C)c2O)c1,"inconclusive [activator, single point]"
22,Cc1cc(F)ccc1NC(=O)c1ccc(NS(=O)(=O)c2cc(C(C)(C)C)ccc2C)cc1,"inconclusive [activator, partial curve]"
23,COc1ccc(C(=O)NC2CCSc3ccccc32)cc1S(=O)(=O)N1CCOCC1 (centres undefined),inactive
